Measured values from the supplement of paper PMC11417369.
Some of the results follow.

Each sequence was assayed on PfHDP1 homeodomain (GST-tagged) (assay: gcPBM binding intensity (ln(normalized median fluorescence intensity)); higher = stronger DNA binding).
Summary of the method: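 Using an Agilent 4 × 180k array, primer-extended double-stranded 36-bp intergenic genomic probes and negative controls were exposed for 1 h to GST-fused P. falciparum DNA-binding domains expressed in E. coli. Binding was carried out in 1× PBS with 1% milk, 0.2 mg/ml BSA, 0.5% salmon testes DNA and 0.03% Triton X-100, and protein was detected with Alexa488 anti-GST antibody and a 488 nm scan. Binding intensity is the highest Masliner-normalised natural-log median intensity across replicate spots of either probe orientation.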

Row | Sequence | gcPBM binding intensity (ln)
1 | GAAAATAAAAAAAATAAAAAAAATAAAAAAAATTAT [XGTACX_negctrl_site443] | 6.24
2 | TTTTGTAACCTATGCACGCACACAAGAAAAAAACAA [CACACA_site3776] | 9.11
3 | TAAATATCTAAAGACTGTACAATTAAATATAAACAT [XGTACX_site1450] | 6.48
4 | AATACATATAAAAGTACACACACACCCATATATATA [CACACA_site8220] | 7.05
5 | ATAGAATACATATATGAACACACAGAGTTTTAAAAA [CACACA_site8879] | 6.7
6 | TATATTATATATATGTGTACATATAAATGTAACAAA [XGTACX_site5025] | 6.45
7 | TTTTTTTTTTGATGTTGTACATATATACTATATAAT [XGTACX_site1332] | 6.38
8 | AATATATATCATCACACACACATACATAAATATATA [CACACA_site184] | 6.87
9 | AGTTTATTTGTAAAAAGTACATATTTAAGAAAACTT [XGTACX_site2318] | 6.26
10 | AAATTTGGCAAACACACACACACACCCACACCCACA [CACACA_site8095] | 6.68
11 | TTCTAACTCTAACAAGTGCAATATATATACATAATA | 8.84
12 | TATATATATATATATAGTACATATTAATTAATTTAT [XGTACX_site8198] | 9.23
13 | ATATATTTTAAATATATTATTATTGCATTGTGAAAA [TGCATGCA_negctrl_site106] | 7.29
14 | CACAGACACGGACACACACACACACCCACATATATA [CACACA_site4355] | 6.97
15 | AAAAAAAAAAAAAAAACACACATATATATATATATA [CACACA_site2436] | 9.3
16 | TCTTAAAAAATAGGGACACGTAAATATAATATATAA [CACACA_negctrl_site554] | 6.47
17 | TTATAATAATAGAACTTTATGTAGAAAAAAGGAAAA [XGTACX_negctrl_site116] | 6.22
18 | ACACATACTAAAATGTTGTGAAATATGATAATGTGA [CACACA_negctrl_site851] | 6.52
19 | ATGTGTTGGGAAAAGGCATGCACTTTTTTTTTTTTT [TGCATGCA_site707] | 6.79

Row | Sequence | gcPBM binding intensity (ln)
20 | TTTTCCTTATATTATGCATGCAGGGTTTGACATTAT [TGCATGCA_site826] | 7.26
21 | TGATAACCTCACAAATGTACGTACGGGGCTAGCATT [XGTACX_site4157] | 6.72
22 | AACAGCATTATTTCTTATTTTTTTTTTGATATATTT [GTGCAC_negctrl_site114] | 6.39
23 | ATATCTATAATAAATACACACATTTATATAGATAAA [CACACA_site7518] | 6.38
24 | AAACTTGACAGACACACACACACATATATAAAAAAA [CACACA_site757] | 6.98
25 | GTTATATTATTCATACGTACCTATATTTCTATTAAC [XGTACX_site3447] | 7.17
26 | TTTAAAACCTTACATACACACAAATATGTAAATATA [CACACA_site6464] | 6.34
27 | CACGCATATATACATACATGCATATATACATCCATG [TGCATGCA_site667] | 6.56
28 | AAAAAAAAAAAAAAAACACACATATAGGTATAAATA [CACACA_site7528] | 6.63
29 | TTCATATAACCTTATAGTACATAATTAAAAATATAA [XGTACX_site6328] | 6.32
30 | TATTATTCTATACATTGTACATATTTTATAGTATGT [XGTACX_site73] | 6.52
31 | AAAAAAAAAAAATAGACACACATATTATATATATAT [CACACA_site1419] | 8.52
32 | TATGTATTTATCCACTTACATTTTTACTTTTCCATT [CACACA_negctrl_site1141] | 6.4
33 | ATTTATACATGCTAATGTACTTATTTCACCTATATC [XGTACX_site3120] | 6.3
34 | TATGGTATATACAACACACACACATATGTATAAATA [CACACA_site6562] | 6.96
35 | TATATATATAATATTACACACATATATTTATATTTT [CACACA_site3460] | 7.53
36 | CAAGTATTAATTATGTGTACATATATATATATATAT [XGTACX_site5311] | 9.29
37 | AAATATATATACACATATATATATATATATATATAT [CACACA_negctrl_site1742] | 9.5
38 | CTTTCCTATTTGACACGTACGAAATTTTACATAAAA [XGTACX_site6689] | 6.94

Row | Sequence | gcPBM binding intensity (ln)
39 | AAAATAAAAAATATAACACACAATAAATATTTATAT [CACACA_site6986] | 6.7
40 | TATGAAATATCGTGCACACACGAATAATATAAGAAT [CACACA_site4842] | 9.21
41 | AAATGTGAAGTGAATACACACCTAATAAATATAACA [CACACA_site5727] | 6.59
42 | TACTGATCTTTCTAGGTGCGCTGCTACCATTATCGT [GTGCAC_site9538] | 6.41
43 | ATATATAGATAATCAAGTACATAACAAGATATAAGA [XGTACX_site2186] | 6.66
44 | ACATGAAATGTTTAAAGTACATATATAAATTTTTTT [XGTACX_site4519] | 6.12
45 | TATATTTAATTATTATGTACTTATAATTTTTGAAAG [XGTACX_site8548] | 6.73
46 | ATCCGAGTGTGAAATACACACATGATAATGTGAATG [CACACA_site919] | 6.23
47 | AATTATATTACAAACTGTACATATATAATTTGTCCA [XGTACX_site6009] | 6.15
48 | TCTTAAGGAAAAGAGTGTACAGAAATTTTTATTAAC [XGTACX_site6139] | 6.33
49 | TATAGGAATATATGGTGTACCTATAAATCTGACATA [XGTACX_site8111] | 6.31
50 | TTAAATAAGTAATTATGTACATATAATATTCTTTAT [XGTACX_site5280] | 6.28
51 | TAGAAAATATAAAAATGTACGTAAATAAAATGTGCA [XGTACX_site3459] | 7.08
52 | AAAAATAAAAATTGCACACTAAAAAATTACGCACGA [CACACA_site3418] | 9.87
53 | ATTTATATATTTATACGTACTTATATATTGTTACAT [XGTACX_site6254] | 6.81
54 | TTAATATTGTATTTCACACATAATTTAATATACTCA [CACACA_site5678] | 6.3
55 | TATAATGAGGATAATAGTACATATGAATACAAAAAA [XGTACX_site3665] | 6.91
56 | GCCATAAAAATATATACACACATAAAAAAAAATTAT [CACACA_site1176] | 6.65
